Test results from PubChem BioAssay AID493208 (National Center for Advancing Translational Sciences (NCATS), 2011).
The whole screen tested about 44,000 compounds, of which about 340 (0.77%) were called active. Not shown: some 5% with an inconclusive outcome. Calls come from the whole dose curve; as a rule, active = well fitted inhibition curve with a large enough effect; inconclusive = small, poorly fitted or top-dose-only effect; inactive = flat fitted curve, though single readings scatter. Some of the results follow.

Experiment: Acumen qHTS Assay for Inhibitors of the mTORC1 Signaling Pathway in MEF (Tsc2-/-, p53-/-) Cells: Sytravon;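 note: plate controls were DMSO for no effect and rapamycin for full effect; nearly all actives have a fitted effect of over 50% in size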
Details: phospho-rpS6 immunofluorescence/PI, 24 h; series mostly up to 38.3 µM; activity change, negative = inhibition: at the top concentration
In short: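 Immunofluorescence of rpS6 phosphorylation in Tsc2-/-, p53-/- MEFs after 24 h compound exposure, normalized to propidium iodide signal. Activity is expressed as % positive cells, thresholded with 7.5 nM rapamycin.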

Activity change, negative = inhibition, inactive:
CCOC(=O)c1ccc(NC2SC(=O)N(Cc3cccc(C(=O)O)c3)C2=O)cc1 (centres undefined) -1.39%
COc1cc2nc(SCC(=O)Nc3ccccc3F)n3nc(-c4ccccc4)nc3c2cc1OC -0.468%
CCOc1ccc(Cn2c(CNS(=O)(=O)c3cccc(Cl)c3)nc3cccnc32)cc1 -0.108%
CCc1ccc(NC(=O)CSc2nc3c(sc4ccccc43)c(=O)n2CCCOC(C)C)cc1 6.48%
COc1ccccc1C(=O)N1CCN(Cc2cc(=O)oc3cc(C)ccc23)CC1 2.2%
COc1ccc(-c2nc3ccc(NS(=O)(=O)c4ccc(Cl)cc4)cc3o2)cc1 0.771%
Cc1ccc(CNC(=O)c2ccc(CSCc3ccccc3C)o2)cc1 3.82%
COc1ccccc1NC(=O)CSC1=Nc2ccccc2C2=NC(CCC(=O)NCc3cccs3)C(=O)N12 (centres undefined) 1.43%
COc1ccc(-n2cc(C(=O)NCc3ccccc3Cl)c3ccccc3c2=O)cc1 -2.07%
CCCCN(CC)C(=O)Cn1ncc2c3ccccc3n(CCC)c2c1=O -12.5%
Cn1c(=O)[nH]c2cc(-c3noc(-c4cccc(Cl)c4)n3)ccc21 -1.8%
CCOc1cccc(C(=O)N(Cc2ccc(CC)cc2)C2CCS(=O)(=O)C2)c1 (centres undefined) -9.57%
CCCNC(=O)Cn1nc(-c2ccc(F)cc2)c2cnc3ccc(F)cc3c21 0.822%
CCC(C)NC(=O)c1cccc(NC(=O)c2nsc3ccccc23)c1 (centres undefined) -15.2%
CC(=O)C1=C(c2ccc(Cl)cc2)N(C(C)=O)n2c(nnc2C2CCCCC2)S1 0.395%
Cc1ccc(Cl)cc1N(C)C(=O)c1cn(C2CCCCC2)c(=O)c2c1c1ccccc1n2C 1.16%
Cc1ccc(N(CC(=O)Nc2cccc(Cl)c2)S(=O)(=O)c2cccs2)cc1 -5.65%
CCN(Cc1ccccc1)S(=O)(=O)c1ccc2c(c1)CC(C)N2C(=O)C1CCC1 (centres undefined) 0.658%
O=c1c2oc3ccccc3c2n(Cc2ccccc2F)c(=O)n1Cc1ccccc1 -0.847%
Cc1ccc2onc(CC(=O)Nc3ccc(C(C)C)cc3)c2c1 -0.388%
Cc1ccc2c(c1)N(CCC(=O)NCc1ccccc1Cl)C(=O)CO2 -1.33%
COc1cccc(CNC(=O)c2cc3c(=O)oc4ccc(C)cc4c3s2)c1 1.87%
COc1ccc(-c2nnc(SCc3cccc(Cl)c3)o2)cc1 5.98%
CC(=O)N1CCC(N(Cc2ccc(C)o2)C(=O)Nc2ccc(C)cc2)CC1 0.283%
Cn1c(=O)[nH]c(=O)c2c1nc(NCCc1ccccc1)n2Cc1ccc(F)cc1 -12.8%
COc1ccc(NC(=O)c2c(NC(=O)c3ccc(Br)cc3)sc3c2CCCC3)cc1 12.4%
Cc1cc(NC(=O)Nc2nnc(N(C)Cc3ccccc3)s2)ccc1Br -5.29%
Cn1cc(S(=O)(=O)N2CCOCC2)cc1C(=O)Nc1ccc(Cl)c(C(F)(F)F)c1 8.46%
CCOc1ccc2nc(NC(=O)c3nc(SC)ncc3Cl)sc2c1 -3.71%
CCOc1ccccc1NC(=O)Cc1noc2ccc(C)cc12 -4.42%
Cn1cnc2c(=O)oc3ccc(S(=O)(=O)Nc4ccc(F)cc4)cc3c21 -10.6%
CCOc1ccc(CNS(=O)(=O)c2ccc(-c3coc(C)n3)cc2)cc1 -7.88%
COc1ccc(N2CCN(CCCNC(=O)Cn3c(-c4cccs4)cc4ccccc43)CC2)cc1 0.0836%
CC1(C)C(=O)N(CC(=O)Nc2ccc(Br)cc2F)c2ccccc21 -2.32%
COc1cccc(C2C(C(=O)Nc3ccc(C)cc3C)=C(C)Nc3nc4ccccc4n32)c1OC (centres undefined) -19.3%
COc1ccc2nc(N(Cc3cccnc3)C(=O)C3CCCCC3)sc2c1 -5.69%
Cc1nc2ccc(S(=O)(=O)N(C)CC(=O)Nc3cccc(C(F)(F)F)c3)cc2s1 -1.86%
CCOC(=O)c1cc(S(=O)(=O)N2CCN(c3ccccc3F)CC2)[nH]n1 -1.96%
CC(NC(=O)C1CCN(c2nc3ccccc3nc2C(F)(F)F)CC1)c1ccccc1 (centres undefined) 5.4%
CCCCN(CC)CCCNC(=O)Nc1sc2nc3n(c(=O)c2c1C)CCC(C)CC3 (centres undefined) -5.5%
CCCCNC(=O)c1cccc(-n2c(C)nc3cccnc32)c1 -0.198%
Fc1ccc2c(c1)-c1nc(-c3ccccc3)cc(-c3ccccc3)c1CO2 5.28%
CCOc1cc(C(=O)N2CCn3c4c(c5cc(C)ccc53)CCCC42)cc(OCC)c1OCC (centres undefined) -0.586%
COc1ccc(N(C(=O)c2cccc(C)c2)S(=O)(=O)c2ccc(Cl)cc2)cc1 -0.0762%
CC(C)CCNC(=O)c1cnc2sc(N3CCCCC3)nn2c1=O 8.02%
Cc1c(NC(=O)Nc2ccccc2C(F)(F)F)sc2nc3n(c(=O)c12)CCC(C)CC3 (centres undefined) -2.62%
COc1ccc(CCCc2nnc(SCC(=O)Nc3ccc(C)cc3)o2)cc1 -5.62%
Cc1cccn2c(=O)c(/C=C(\C#N)c3nc4ccccc4[nH]3)c(Oc3ccc(C(C)(C)C)cc3)nc12 -19%
CCOc1ccc(-c2ccc(NS(=O)(=O)c3ccc(C)cc3)cc2)nn1 1.42%
O=C(CCc1nc(-c2cccs2)no1)Nc1cccc([N+](=O)[O-])c1 0.269%
Cc1ccc(C)c(N2CCN(C(c3ccccc3)c3nnc(-c4ccccc4F)o3)CC2)c1 (centres undefined) -27.7%
Cc1ccc(OCC(=O)OCc2cc(=O)n3nc(-c4cccs4)sc3n2)cc1C -6.53%
Cc1ccc(-c2nc3n(n2)C(=O)CC(c2ccc(Cl)cc2)S3)cc1 (centres undefined) -0.848%
Cc1cc(C)c(NC(=O)Cn2c(=O)n(-c3ccc(CC(=O)NCC4CCCO4)cc3)c(=O)c3ccccc32)c(C)c1 (centres undefined) 3.07%
Cc1ccc(C(=O)Nc2sc3c(c2C(=O)NCc2ccco2)CCC(C(C)(C)C)C3)cc1 (centres undefined) -20.9%
O=C(NCc1ccc(F)cc1)c1cc2n(n1)CCCN(Cc1ccc(F)cc1)C2=O -10.4%
Cc1ccsc1CN(C(=O)COc1ccc(Br)cc1)C1CCS(=O)(=O)C1 (centres undefined) 0.235%
Cc1ccc(OCC(=O)Nc2cc3nn(-c4ccccc4)nc3cc2C)cc1 2.78%
CCOc1ccc(Sc2cc(C(=O)NC(C)c3ccccc3)c3ccccc3n2)cc1 (centres undefined) 6.57%
Cc1cc(Cl)ccc1NC(=O)C(=O)NCc1ccco1 18.4%
COc1ccc2c(CNCc3cccs3)c(C(=O)O)n(Cc3ccccc3)c2c1 -1.38%
Cc1c(CCNC(=O)c2ccc(Br)o2)sc2nc(-c3ccc(F)cc3)nn12 1.12%
COc1ccc(NC(=O)Cn2c(SCc3cc(C)ccc3C)nc3ccncc32)c(OC)c1OC -0.225%
CCOc1ccccc1NC(=O)Cn1cc(C(=O)c2cccc(OC)c2)c(=O)c2ccc(C)nc21 2.21%
O=C(Cn1c(=O)c2cccn2c2ccccc21)NCCc1ccccc1 7.91%
Cc1ccc2nc(NC(=O)COc3ccc(F)cc3)sc2c1 -0.0302%
CCOc1ccccc1C(=O)Nc1ccc(S(=O)(=O)Nc2nc(C)cc(C)n2)cc1 -2.8%
CCc1cccc(NC(=O)CSC2=Nc3ccccc3N=C(c3ccc(F)cc3)C2)c1 -17.8%
COc1cc(NC(=O)CN(c2ccc(C)cc2)S(=O)(=O)c2cccc3nonc23)cc(OC)c1 1.16%
CCN1CCN(c2nc3c(S(=O)(=O)c4ccc(Br)cc4)nnn3c3ccsc23)CC1 -3.71%
Cc1ccc(NC(=O)Cn2cnc3sc(C(=O)O)c(C)c3c2=O)cc1Cl 1.83%
O=C(CSc1nnc(CNC(=O)c2cccc(F)c2)n1-c1ccccc1)Nc1ccccc1F 1.46%
Fc1ccc(-c2noc3ncnc(NCCc4ccccc4)c23)cc1 -4.44%
CCOc1ccc(-c2nonc2NC(=O)COc2c(C)cc(C)cc2C)cc1OCC -10.7%
COc1ccc(Nc2nc(-c3ccc(C)cc3)nc3ccccc23)c(OC)c1 7.27%
CCCCCn1c(C(C)NC(=O)c2ccccc2)nc2ccccc21 (centres undefined) 4.07%
COc1ccc2c(c1)c1c(c(=O)n(Cc3ccccc3)c(=O)n1CC(=O)NCc1ccccc1Cl)n2C -14.6%
CCOc1cc(CNC(=O)C2COc3ccccc3C2)cc(OCC)c1OCC (centres undefined) -0.892%
CCc1nn(CC(=O)NCCc2ccc(OC)cc2OC)c(=O)c2cc3c(OC)cccc3n12 1.02%
COc1ccc(CCn2cc3c(c2-c2ccc(Br)cc2)c(=O)n(C)c(=O)n3C)cc1OC 3.91%
Cc1ccc(C(C)C)c(OCC(=O)NCC2(N(C)C)CCCCC2)c1 -9.43%
Cc1ccccc1C(=O)n1nc(-c2ccco2)nc1NCc1ccc(Cl)cc1 -6.57%
Cc1ccccc1N1CC(c2nc3ccccc3n2CCC2CCCCC2)CC1=O (centres undefined) 1.41%
COc1ccc(CNC(=O)CCn2cccn2)cc1 -16.8%
COc1ccc(-c2nc(C)c(CCNC(=O)C(=O)Nc3ccccc3OC)s2)cc1 0.618%
O=C(NCCc1ccccc1Cl)c1ccc(Cn2c(=O)c3cccn3c3cccnc32)cc1 4.53%
O=C(COc1ccc(Cl)cc1)Nc1ccc(-c2nc3ccccc3s2)c(O)c1 3.05%
Cc1ccc(-c2nnc(SCc3ccccc3C)o2)cc1 2.16%
CCc1ccccc1NC(=O)c1c(NC(=O)c2ccccc2)sc2c1CCCC2 -4.5%
CCOC(=O)C1CCC(CN(Cc2cccc(Br)c2)S(=O)(=O)c2ccc(C)cc2)CC1 (centres undefined) 3.06%
COc1ccc(S(=O)(=O)Nc2ccc3c(c2)N(C(C)=O)CCC3)cc1F 21.8%
COc1cc(Cl)c(NC(=O)CCS(=O)(=O)c2cc3c(cc2Cl)NC(=O)CO3)c(OC)c1 -0.0611%
COc1cc(-c2cc(OC)c3c(C)oc(C)c3c(=O)c2)ccc1OC(=O)c1ccccc1Cl 2.38%
COc1ccc(OC)c2sc(N3CCN(C(=O)C(C)(C)C)CC3)nc12 0.191%
Cc1ccc(-c2cc3ncc4c(n3n2)-c2cc(C)ccc2OC4)cc1 -0.34%
Cc1cc(C)c2c(=O)cc(CSCC(=O)Nc3ccccc3Cl)[nH]c2c1 12.7%
CCOC(=O)C1=C(CN2CCC(C)CC2)NC(=O)NC1c1ccc(F)cc1 (centres undefined) -7.9%
Cc1cccc(Oc2nc3c(C)cccn3c(=O)c2/C=C(\C#N)c2nc3ccccc3[nH]2)c1 -3.39%
Cc1ccc2nc(N3CCN(c4cccc(Cl)c4)CC3)c(-n3nc(C)cc3C)nc2c1 -1.23%
